In all, about 380,000 compounds went through this assay and about 170 (0.045%) were called active. Calls follow the shape of the dose curve; as a rule, active = well fitted inhibition curve with a large enough effect; inconclusive = small, poorly fitted or top-dose-only effect; inactive = no such curve, though single readings can be large or run the other way. The list shows a part of the results, in another mix than the full data. The source holds several records for some structures; these can differ, active in one and inactive in another. Where a SMILES comes first, the peptide text is derived from it. Bridges are numbered along the chain shown (N, C = ends). [ ]: non-standard residue; d: D form. The star is where a group is joined. X1 = CCC(C)C(N)C1=NC(C(=O)*)CS1; dOrn = NCCC[C@@H](N)C(=O)O
Potency is read from the fitted curve at half-maximal effect.

The test has as its target Phosphoglycerate kinase, glycosomal (Trypanosoma brucei brucei) (UniProt P07378). The test is described as follows: qHTS Assay to Find Inhibitors of Phosphoglycerate Kinase. Also: nearly all actives have a fitted effect of over 60% in size. The following applies: PGK/GAPDH coupled, Kinase-Glo luminescence, 60 min; series mostly up to 57.5 µM; activity change, negative = inhibition: at the top concentration. An excerpt:
Several species of the Trypanosomatidae family of parasitic protozoans cause a spectrum of diseases throughout the tropical and subtropical world. Sleeping sickness, caused by two subspecies of Trypanosoma brucei, is endemic to areas of sub-Saharan Africa, while Chagas disease, a manifestation of Trypanosoma cruzi infection, is prevalent throughout Central and South America. In addition, many species of Leishmania are responsible for a range of cutaneous and visceral diseases, causing ulcers, destructive lesions and kalaazar, a lethal infection of the viscera. Collectively, these organisms infect 30 million people worldwide (~500 million live in endemic areas), and account for ~130,000 deaths annually. Given their debilitating and prevalent nature, trypanosomatid parasites impose a heavy medical, economic and social burden on entire populations, primarily in the developing world. The problem is further exacerbated by the fact that existing treatments have progressed little in the past 50 years, and current drugs show high toxicity and poor efficacy. […] Blood-stream stages of T. brucei are entirely dependent on glycolysis as a source of ATP, and the tricarboxylic acid cycle and oxidative phosphorylation are both repressed. Glycolysis in axenically cultured T. cruzi, representing the intracellular pathogenic stage, is also essential for these parasites. […] Previous studies have shown that the glycolytic enzyme, phosphoglycerate kinase (PGK), is a viable target for drugs to kill these parasites. […] NIH Molecular Libraries Probe Production Network [MLPCN] NIH Chemical Genomics Center [NCGC] MLPCN Grant: R03 MH093212 PI Name: Malcolm Walkinshaw, University of Edinburgh
3ul of substrate/PGK buffer (columns 1,2,5-48) are dispensed into Greiner white solid bottom 1536-well assay plates; columns 3-4 receive only TEA buffer as 0x PGK controls. Compounds are then transferred via Kalypsys pin tool equipped with 1536-pin array (10nl slotted pins, V&P Scientific, San Diego, CA). Following addition of compound, 1ul of GAPDH (100nM final concentration, all columns) is added to initiate the reaction (this upstream coupling enzyme is necessary for in-well production of PGK substrate, 1,3-bisphosphoglycerate (1,3-BPG), which is unstable and not commercially available). The plates are then incubated at room temperature for 60 minutes. Kinase-Glo Plus reagent is added (2ul) and plates incubated for 10 minutes, before being transferred to a ViewLux high-throughput CCD imager (PerkinElmer) wherein single end-point measurements of luminescence are acquired using a clear filter. All reagents are diluted in an assay buffer consisting of 100mM TEA (pH 7.6), 5mM MgCl2 and 0.01% Tween-20.
On to `O=C(O)C1Nc2ccc(Br)cc2C2C=CCC12` (stereo not drawn), for which the Potency was active: 31.6 µM. As for `COc1ccccc1/C=N/NC(=O)c1ccc(NC(=O)c2ccccc2Br)cc1`, the “activity change, negative = inhibition” value was inactive: 19%. As to `Cc1ccc(CNS(=O)(=O)c2ccc3c(c2)CCN3C(=O)CCCC(=O)O)cc1`, the result was inactive. In the case of `O=C(Nc1nc(-c2ccccc2Cl)cs1)c1cccnc1`, the “activity change, negative = inhibition” value was inactive: 24.2%. Take `O=C(O)CC(C(=O)O)N1C(=O)/C(=C/c2ccc(-c3nc4ccccc4s3)o2)SC1=S` (stereo not drawn): the Potency was active: 25.1 µM. Turning to `Cc1cccc(Cc2cnc(N3C(=N)SC(C)C3=O)s2)c1` (stereo not drawn), the “activity change, negative = inhibition” value is inactive: -1.14%. Regarding `CC(C)(C)OC(=O)C[C@@H]1C/C=C\C[C@H](CC(=O)N(CCO)Cc2ccccc2)C(=O)NC[C@@H](c2ccccc2)OC1=O`, the “activity change, negative = inhibition” value is inactive: 1.58%.

With `O=CC(O)C1OC(=O)C(O)C1O` (stereo not drawn), the Potency is active: 6.31 µM. Take `CCC1(c2ccccc2)NC(=O)N(CC(=O)Nc2cc(S(=O)(=O)N3CCCCC3)ccc2N(C)C)C1=O` (stereo not drawn): the “activity change, negative = inhibition” value is inactive: 18.1%. `CC(C)(C)OC(=O)C[C@@H]1C/C=C\C[C@H](CC(=O)NCCO)C(=O)N2CCC[C@@H]2COC1=O`: the “activity change, negative = inhibition” value is inactive: -0.504%. `O=C(NC1CCN(Cc2ccccc2)CC1)c1cccc(S(=O)(=O)Nc2cc(C(F)(F)F)ccc2Cl)c1`: the “activity change, negative = inhibition” value is inactive: 23.7%. Consider `CCC(C)C(N)C1=NC(C(=O)N[C@@H](CC(C)C)C(=O)N[C@H](CCC(=O)[O-])C(=O)N[C@H](C(=O)N[C@H]2CCCCNC(=O)[C@H](CC(N)=O)NC(=O)[C@@H](CC(=O)[O-])NC(=O)[C@H](Cc3cnc[nH]3)NC(=O)[C@@H](Cc3ccccc3)NC(=O)[C@H]([C@@H](C)CC)NC(=O)[C@@H](CCCN)NC2=O)[C@@H](C)CC)CS1.[Zn+2]` (stereo partly drawn) (X1-L[dE]IK[dOrn]I[dF]H[dD]N; lactam 4-C), for which the Potency was active: 28.2 µM. On to `COc1ccc2nc(C)cc(N3CC(C)OC(C)C3)c2c1` (stereo not drawn), for which the “activity change, negative = inhibition” value is inactive: 19.7%. Still for that read-out and setting: as for `O=C(CNC(=S)N(Cc1ccccc1)Cc1cccnc1)NCCN1CCOCC1`, the figure is inactive: 0.663%.

As for `CC(=O)Nc1ccccc1Sc1ccccc1`, the “activity change, negative = inhibition” value was inactive: 23.5%. In the case of `O=C(CCCSc1ccccc1)Nc1ccc(Cl)c(S(=O)(=O)N2CCOCC2)c1`, the “activity change, negative = inhibition” value is inactive: 23.3%.

Turning to `CC(C)(C)OC(=O)C[C@@H]1C/C=C\C[C@H](CC(=O)N(CCO)Cc2ccccc2)C(=O)NC[C@H](c2ccccc2)OC1=O`, the “activity change, negative = inhibition” value was inactive: -4.06%. As to `CC(C)(C)OC(=O)C[C@@H]1C/C=C\C[C@@H](CC(=O)N(CCO)Cc2ccccc2)C(=O)NC[C@H](c2ccccc2)OC1=O`, the “activity change, negative = inhibition” value is inactive: 2.42%. With `COc1ccc(CNc2nc(SCC(=O)NCc3ccco3)nc3ccccc23)cc1`, the “activity change, negative = inhibition” value was inactive: 17.1%. As for `C=CCC1C=CCC(CC=C)N1C(=O)c1ccccc1[N+](=O)[O-]` (stereo not drawn), the “activity change, negative = inhibition” value is inactive: 22.7%. Take `O=C(O)CCCCCN1C(=O)/C(=C\c2cn(-c3ccccc3)nc2-c2cccs2)SC1=S`: the “activity change, negative = inhibition” value was inactive: -23.8%. In the case of `COC(=O)C1=C(N)Oc2c(oc(CO)cc2=O)C1c1ccccc1F` (stereo not drawn), the “activity change, negative = inhibition” value is inactive: 25.2%. Consider `O=C(O)/C=C\C(=O)NNC(=O)c1cc(-c2ccccc2)n[nH]1`, for which the “activity change, negative = inhibition” value is inactive: -18.1%.

With `O=[N+]([O-])c1ccccc1/C=N/Nc1nnc(-c2ccccc2)c(-c2ccccc2)n1`, the “activity change, negative = inhibition” value is inactive: 20.8%.

For the molecule `CC(=O)NN1C(=O)/C(=C\c2ccc(Br)o2)SC1=S`, the “activity change, negative = inhibition” value was inactive: -2.62%. Same read-out and setting: next, `CCOC(=O)COc1cc(OCC(=O)OCC)c2c(=O)cc(-c3ccccc3)oc2c1`: inactive: 24.4%; `CSCCC(NS(=O)(=O)c1ccc(C)cc1)C(=O)N1CCCCCCC1` (stereo not drawn): inactive: 23.2%; `COc1ccc(C2=Nn3c(nnc3-c3ccncc3)SC2)cc1OC`: inactive: 18.8%. For `COc1ccc(NS(=O)(=O)c2ccc3c(c2)[C@H]2C=CC[C@H]2[C@@H](c2ccc(C(=O)O)cc2)N3)cc1`, the “activity change, negative = inhibition” value was inactive: -24.3%. Consider `CCN(CC)C(=O)CC(c1ccccc1)c1ccco1` (stereo not drawn), for which the “activity change, negative = inhibition” value is inactive: 17.8%. `COC(=O)C1=CO[C@@H](O[C@@H]2O[C@H](CO)[C@@H](O)[C@H](O)[C@H]2O)C2C1C=C[C@@]2(O)CO` (stereo partly drawn): the “activity change, negative = inhibition” value is inactive: -3.91%.

For the molecule `CCN(CC)C(=O)c1cncc(C(=O)N(CC)CC)c1-c1ccccc1`, the “activity change, negative = inhibition” value is inactive: 18.5%. On to `CCCCn1c(N)c(N(Cc2ccccc2OC)C(=O)CSCC(=O)Nc2cccc(C)c2)c(=O)[nH]c1=O`, for which the “activity change, negative = inhibition” value is inactive: 22.7%. Take `C[C@@H]1O[C@@H](OC[C@@H]2O[C@H](Oc3c(-c4ccc(O)cc4)oc4cc(O)cc(O)c4c3=O)[C@@H](O)[C@H](O)[C@H]2O)[C@H](O)[C@H](O)[C@H]1O`: the outcome was inactive. In the case of `C/C(N)=C(/C#N)C(=O)CSc1nnc(Nc2c(C)cccc2C)s1`, the “activity change, negative = inhibition” value is inactive: -21%.

On to `O=C(O)C(c1ccccc1)N1C(=O)/C(=C\c2ccc(-c3ccccc3Cl)o2)SC1=S` (stereo not drawn), for which the Potency was active: 11.2 µM. On to `O=C1COc2ccc(C(=O)COC(=O)CNC(=O)C3CCCCC3)cc2N1`, for which the “activity change, negative = inhibition” value is inactive: -2.84%. Same read-out and setting: next, `COc1ccc(CCN2CC(C(=O)NCCc3ccc(C)cc3)CC2=O)cc1OC` (stereo not drawn): inactive: -24.6%; `CCOc1ccccc1N(C)C(=O)c1sc2nc3n(c(=O)c2c1C)CCCC3`: inactive: 15.9%. Take `CC(=O)CSc1nnc(-c2ccc(S(=O)(=O)N3CCC(C)CC3)cc2)o1`: the “activity change, negative = inhibition” value was inactive: 25.1%. On to `COc1cc2c(C#N)c(N3CCCC3)nc(N)c2c(N)n1`, for which the “activity change, negative = inhibition” value is inactive: -9.43%. As for `C[C@@H]1O[C@@H](Oc2c(-c3cc(O)c(O)c(O)c3)oc3cc(O)cc(O)c3c2=O)[C@H](O)[C@H](O)[C@H]1O`, the “activity change, negative = inhibition” value is inactive: -29.9%.

Regarding `CC(C)(C)OC(=O)C[C@H]1C/C=C\C[C@@H](CC(=O)N(CCO)Cc2ccccc2)C(=O)NC[C@@H](c2ccccc2)OC1=O`, the “activity change, negative = inhibition” value was inactive: 9.9%.

The values are drawn from PubChem BioAssay AID602233 (National Center for Advancing Translational Sciences (NCATS), 2012).
